The list shows a part of the results. At the low end of the ranking the order means little.

The test system of this assay is T1, GST-NbGlk1(82-244).
T1 sequence: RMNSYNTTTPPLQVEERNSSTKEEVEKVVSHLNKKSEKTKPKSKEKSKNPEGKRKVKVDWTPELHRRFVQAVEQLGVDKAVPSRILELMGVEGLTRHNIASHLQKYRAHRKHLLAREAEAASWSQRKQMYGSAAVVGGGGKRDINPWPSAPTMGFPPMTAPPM
Kind of assay: protein-binding microarray.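 Also: rank-based score ranging −0.5 to +0.5 with E above 0.45 taken as significant binding.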 As to conditions: NbGlk1 is a Golden2-like transcription factor of Nicotiana benthamiana; high values mean tight binding; most listed sequences are background and not binding sites; double strand, one strand shown.
Regarding AGAATTGC, the binding signal is 0.108 E-score.

Sequence ATCCGACG came in with a binding signal of 0.196 E-score.

ATGACGGC came in with a binding signal of -0.121 E-score.

The sequence ACCGGTGG came in with a binding signal of -0.255 E-score.

The sequence CAAATCGG registered a binding signal of 0.252 E-score.

ATCATATA yielded a binding signal of 0.211 E-score.

Sequence AAGACACA gave a binding signal of -0.035 E-score.

AGGCTCAC showed a binding signal of -0.185 E-score.

In turn, AATGAACT returned a binding signal of -0.121 E-score.

Take ACAGTCCG: the binding signal was -0.142 E-score.

Turning to AGCTAGCA, the binding signal was -0.1 E-score.

The sequence ACCAGGAT returned a binding signal of 0.2 E-score.

AGCAAGGG gave a binding signal of -0.101 E-score.

On to ATCGGACA, for which the binding signal was determined as 0.045 E-score.

Turning to CACTCACC, the binding signal is -0.0951 E-score.

In turn, ATGTGCGA registered a binding signal of 0.0859 E-score.

Consider AGGCAACT, for which the binding signal is -0.127 E-score.

The sequence AGGTGTGA had a binding signal of 0.0761 E-score.

ATCGTGGC: the binding signal worked out at 0.0619 E-score.

CAACGTCA displayed a binding signal of -0.0614 E-score.

ACGGAACC yielded a binding signal of -0.023 E-score.

Turning to ATCCTACA, the binding signal turned out to be 0.298 E-score.

Turning to AATGGATG, the binding signal stood at 0.101 E-score.

Consider AAGCTGTA, for which the binding signal is -0.0326 E-score.

On to ATGTGTAC, for which the binding signal is -0.00202 E-score.

In the case of ACGCCGAA, the binding signal is 0.0399 E-score.

Turning to AAAAGAAA, the binding signal is 0.178 E-score.

The sequence AGGGCAGG gave a binding signal of -0.258 E-score.

As for ACGGGAAT, the binding signal amounted to 0.324 E-score.

The sequence AACGTCAA registered a binding signal of -0.0144 E-score.

As for ATCCCTAC, the binding signal is 0.121 E-score.

Take AGTTAGAT: the binding signal was 0.26 E-score.

Turning to AAATCGCA, the binding signal turned out to be 0.379 E-score.

In the case of AGATTCAC, the binding signal is 0.289 E-score.

As for ATCCCATA, the binding signal turned out to be 0.279 E-score.

CACCATGA: the binding signal is -0.0485 E-score.

For the sequence AAAGCGCG, the binding signal is 0.0534 E-score.

As for ACCGGCCA, the binding signal was -0.214 E-score.

Regarding AGCAACCG, the binding signal is -0.232 E-score.

Turning to AGTAATGC, the binding signal is -0.021 E-score.

In the case of AGATAAAT, the binding signal turned out to be 0.0951 E-score.

The sequence AAATCCTC returned a binding signal of 0.414 E-score.

On to ATAATCGC, for which the binding signal was 0.207 E-score.

AACGTCAC yielded a binding signal of -0.152 E-score.

The sequence ATCGTGTC yielded a binding signal of 0.225 E-score.

ACGCTCCC: the binding signal is -0.128 E-score.

In the case of AACCACTC, the binding signal is 0.012 E-score.

AAAACATG yielded a binding signal of -0.0415 E-score.

ATAGGAGA: the binding signal was 0.0837 E-score.

As to AGGGGTGG, the binding signal was -0.126 E-score.

Sequence AGATAGGA displayed a binding signal of 0.0391 E-score.

Regarding AAAGGGGA, the binding signal is -0.0574 E-score.

ATGCGATA: the binding signal is 0.191 E-score.

For AGGTTAAG, the binding signal is -0.0954 E-score.

AATCGAGA yielded a binding signal of 0.293 E-score.

The sequence ACTACAGC had a binding signal of -0.155 E-score.

ACGGAATG: the binding signal worked out at 0.0185 E-score.

Take AAGTCTAC: the binding signal was -0.221 E-score.

ACTGCTCA had a binding signal of -0.0694 E-score.

In the case of AACACTCC, the binding signal was -0.174 E-score.

Sequence ACTCTGAT yielded a binding signal of 0.136 E-score.

AAGCTCTC: the binding signal is -0.22 E-score.

As for ACTGTATC, the binding signal was -0.0161 E-score.

ACTACTAA: the binding signal was 0.0966 E-score.

For AAAGAATG, the binding signal came to 0.0221 E-score.

The sequence AAGAGTTA registered a binding signal of 0.0236 E-score.

As for AACTAGAG, the binding signal is -0.15 E-score.

ACTCTGGC returned a binding signal of -0.224 E-score.

For AAACCAGG, the binding signal was -0.212 E-score.

As to ATCTAAGC, the binding signal amounted to 0.262 E-score.

In the case of ATATAGGG, the binding signal worked out at 0.00847 E-score.

ACTGAATG returned a binding signal of -0.0978 E-score.

Regarding ACTCAAGG, the binding signal was found to be 0.0715 E-score.

As to CACGCCTC, the binding signal is -0.195 E-score.

As for ATGGATTA, the binding signal was 0.326 E-score.

Turning to AACTAGTT, the binding signal stood at 0.00818 E-score.

Regarding ATTGTGGG, the binding signal was 0.191 E-score.

In the case of CAGCAGTA, the binding signal is -0.12 E-score.

AATTAGAG displayed a binding signal of 0.025 E-score.

ATGGGTAC had a binding signal of -0.191 E-score.

With ACCCAGGG, the binding signal is -0.238 E-score.

Sequence ATGCACAT had a binding signal of 0.0177 E-score.

CACGGCTG registered a binding signal of -0.229 E-score.

Regarding AAGGAAGT, the binding signal was -0.139 E-score.

Take AAGTGGTC: the binding signal was -0.236 E-score.

Regarding AGAGGCGA, the binding signal was -0.00537 E-score.

For ACGGTGGC, the binding signal is -0.159 E-score.

ATTTTGTC showed a binding signal of 0.341 E-score.

As for ACATTCAG, the binding signal amounted to 0.0565 E-score.

Regarding AACAGCTA, the binding signal is -0.0363 E-score.

For the sequence ACATGGCA, the binding signal is -0.145 E-score.

In turn, CAGCCTTA had a binding signal of -0.143 E-score.

Turning to CACTGTAG, the binding signal is -0.0893 E-score.

With AAGTGGCC, the binding signal was -0.272 E-score.

The sequence CAATACTA had a binding signal of 0.0375 E-score.

AAGAACCA came in with a binding signal of -0.179 E-score.

ATCCCGGA: the binding signal is 0.308 E-score.

Regarding ATCGTTGG, the binding signal was -0.0748 E-score.

For CAGAGTTA, the binding signal was -0.0326 E-score.

AGGGACCT yielded a binding signal of -0.3 E-score.

AGGTGGAG had a binding signal of -0.24 E-score.

The sequence AGCTAGAA registered a binding signal of 0.033 E-score.

AGTCCCTG registered a binding signal of -0.105 E-score.

For ACAACATA, the binding signal turned out to be 0.12 E-score.

The sequence ATCCGGGG had a binding signal of 0.279 E-score.

As to AAGTGAAT, the binding signal was determined as 0.124 E-score.

The sequence ATTGGGGG came in with a binding signal of -0.171 E-score.

AATACTCA displayed a binding signal of 0.147 E-score.

Sequence CAAGGCCA came in with a binding signal of -0.158 E-score.

Sequence AGACACGG had a binding signal of -0.048 E-score.

Sequence ATAAGCGG had a binding signal of -0.0581 E-score.

For ATGCATCG, the binding signal was -0.0548 E-score.

Regarding ACTCCTAG, the binding signal was -0.237 E-score.

As to ATAGTGCA, the binding signal is 0.0316 E-score.

Regarding AGCCAGAG, the binding signal was -0.243 E-score.

The sequence AGTAATAA had a binding signal of 0.0565 E-score.

In turn, CACTTTAC came in with a binding signal of 0.0634 E-score.

For the sequence ATATGTTG, the binding signal was 0.173 E-score.

As to ATTATGTC, the binding signal worked out at 0.111 E-score.

Turning to ATATTAGC, the binding signal was determined as 0.208 E-score.

With ATCCTTGC, the binding signal turned out to be 0.135 E-score.

On to ATTCTTTA, for which the binding signal was found to be 0.258 E-score.

With AGTCCCGA, the binding signal was -0.0862 E-score.

AACTTCAC displayed a binding signal of -0.184 E-score.

As for AGATTGTG, the binding signal was 0.421 E-score.

The sequence AGCTCGCC had a binding signal of -0.245 E-score.

Regarding ACATACTA, the binding signal was -0.0393 E-score.

Take AATGGGGT: the binding signal is 0.0771 E-score.

As to AAAACGGG, the binding signal is -0.102 E-score.

The sequence ATGTACAG returned a binding signal of 0.0591 E-score.

In turn, ACTGTAAA displayed a binding signal of 0.201 E-score.

In turn, AGTTCTGA displayed a binding signal of 0.0364 E-score.

Sequence ACAACGTG displayed a binding signal of -0.206 E-score.

AAAAGCTA yielded a binding signal of 0.00274 E-score.

Regarding ATTTAATA, the binding signal worked out at 0.0961 E-score.

As for ATCTGGGA, the binding signal was 0.334 E-score.

CAACTTGG came in with a binding signal of -0.146 E-score.

ATGTGGAA: the binding signal stood at 0.0185 E-score.

As for CAAGACCA, the binding signal is -0.0988 E-score.

With AGGCTACC, the binding signal was -0.192 E-score.

ACAGTAAA came in with a binding signal of 0.0615 E-score.

Take ACTAGTAA: the binding signal came to 0.104 E-score.

ATCTTCAC: the binding signal came to 0.352 E-score.

Turning to AGCAGCAG, the binding signal was -0.111 E-score.

In turn, ATGCTTCG registered a binding signal of -0.0511 E-score.

Take ATGACTAC: the binding signal stood at 0.023 E-score.

Regarding AACAGTTA, the binding signal was 0.0655 E-score.

For the sequence CAAGTATA, the binding signal stood at 0.15 E-score.

CAATTCCC displayed a binding signal of 0.217 E-score.

The sequence ATCATCCG gave a binding signal of 0.0645 E-score.

AGATTTTA gave a binding signal of 0.414 E-score.

AACGAGGT showed a binding signal of -0.115 E-score.

For AGCACCCT, the binding signal is -0.226 E-score.

In turn, ACTTCAAA showed a binding signal of 0.0538 E-score.

For CACTTTCA, the binding signal worked out at 0.00838 E-score.

With ATGCCCGC, the binding signal is -0.0264 E-score.

In turn, CAACTCAC displayed a binding signal of -0.0977 E-score.

In turn, AGCAGCCT gave a binding signal of -0.298 E-score.

AGATTAAG registered a binding signal of 0.153 E-score.

The sequence ATAGCAGA had a binding signal of 0.0836 E-score.

In turn, ACCCATTC gave a binding signal of -0.172 E-score.

Sequence ACCAGGAG showed a binding signal of -0.193 E-score.

In turn, AGCCGGGC had a binding signal of -0.379 E-score.

AAGATGGT gave a binding signal of -0.138 E-score.

ATTAGTGG registered a binding signal of 0.167 E-score.

Sequence AAGACTGA gave a binding signal of 0.0352 E-score.

On to AGGCCCCG, for which the binding signal is -0.317 E-score.

As to AGTGCCCC, the binding signal was -0.229 E-score.

For AAAGGTTA, the binding signal is -0.078 E-score.

As for AAGCGCAA, the binding signal was 0.0458 E-score.

AGACTTAC: the binding signal was -0.103 E-score.

Sequence AGAGGTGC had a binding signal of -0.264 E-score.

The values above are taken from article PMC5836133.
